# Measurements reported in paper PMC5892938.
# Some of the results follow. At the low end of the ranking the order means little.
# Biological target: GST-SBP-SLBP (stem-loop binding protein) (UniProt Q14493)
# Assay: targeted RNA Bind-n-Seq;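 note: DESeq read counts versus GST-SBP nonspecific binding control pulldown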
# Settings: RBNS binding buffer: 25 mM Tris pH 7.5, 150 mM KCl, 3 mM MgCl2, 0.1% Tween, 0.5 mg/mL BSA, 1 mM DTT; 27 nM protein, 750 pM RNA pool; temperature not stated; high values mean tight binding
row,Sequence,binding signal (log2 fold change)
1,GGUCACGUCUCAAUCAACUCAAGUCCAGGAGUUUUCUCCUGUUAUUUCAACAGCUCGCAGUCAAG,-0.091
2,GGUCACGUCUCAAUCAACUCAACUUCAGGAGUUUUCUCCUGUUUACUCAACAGCUCGCAGUCAAG,0.108
3,GGUCACGUCUCAAUCAACUCUUCCUCCAGGGAAAACCCUGGUAAUCUCAACAGCUCGCAGUCAAG,-0.0639
4,GGUCACGUCUCAAUCAACUCAACUCCCAGGGAAAGCCCUGGCUAUCUCAACAGCUCGCAGUCAAG,-0.000122
5,GGUCACGUCUCAAUCAACUCAAUCCCCAGGGAAAGCCCUGGCAUAUUCAACAGCUCGCAGUCAAG,0.136
6,GGUCACGUCUCAAUCAACUCAACUCCCAGGGAAACCCCUGGCUAUCUCAACAGCUCGCAGUCAAG,-0.162
7,GGUCACGUCUCAAUCAACUCUUUCCCCAGGGAAAGCCCUGGCUAUUUCAACAGCUCGCAGUCAAG,0.141
8,GGUCACGUCUCAAUCAACUCUAUCUCCAGGGAAACCCCUGGCAUAUUCAACAGCUCGCAGUCAAG,0.0351
9,GGUCACGUCUCAAUCAACUCAUUCCCAGGAGUUUUCUCCUGUUUAGUCAACAGCUCGCAGUCAAG,0.0948
10,GGUCACGUCUCAAUCAACUCAACUUCCAGGGAAAUCCCUGGUUUUUUCAACAGCUCGCAGUCAAG,0.104
11,GGUCACGUCUCAAUCAACUCAAUAGAGGGGGGGAAAACCCCUUUGCCCUCACCAUCAACAGCUCGCAGUCAAG,-0.409
12,GGUCACGUCUCAAUCAACUCUUCGUCAGGAGUUUACUCCUGUUAUCUCAACAGCUCGCAGUCAAG,-0.0854
13,GGUCACGUCUCAAUCAACUCAUUCUCAGGAGUUUGCUCCUGUAAUCUCAACAGCUCGCAGUCAAG,0.0493
14,GGUCACGUCUCAAUCAACUCUUCGUCCAGGGAAAUCCCUGGUUUUCUCAACAGCUCGCAGUCAAG,-0.165
15,GGUCACGUCUCAAUCAACUCAUCUCCCAGGGAAAGCCCUGGUAAUCUCAACAGCUCGCAGUCAAG,0.221
16,GGUCACGUCUCAAUCAACUCUUUCCCCAGGGAAAACCCUGGUUUACUCAACAGCUCGCAGUCAAG,0.0745
17,GGUCACGUCUCAAUCAACUCCCUAGAGGGGGGGAAAACCCCUUUGCCCUCGAAAUCAACAGCUCGCAGUCAAG,-0.119
18,GGUCACGUCUCAAUCAACUCAUUAGAGGGGGGGAAAACCCCUUUACCCUCACCAUCAACAGCUCGCAGUCAAG,-0.207
19,GGUCACGUCUCAAUCAACUCUCACGAGGGGGGGAAAACCCCUUUACCCUCAAUCUCAACAGCUCGCAGUCAAG,0.132
20,GGUCACGUCUCAAUCAACUCAUCUUCCAGGGAAAUCCCUGGUAUUUUCAACAGCUCGCAGUCAAG,0.046
21,GGUCACGUCUCAAUCAACUCUUUUCCAGGAGUUUUCUCCUGUUUUGUCAACAGCUCGCAGUCAAG,-0.0394
22,GGUCACGUCUCAAUCAACUCUAAAGAGGGGGGGAAAACCCCUUUGCCCUCAUCUUCAACAGCUCGCAGUCAAG,0.146
23,GGUCACGUCUCAAUCAACUCUUCGCCAGGAGUUUUCUCCUGUUAUUUCAACAGCUCGCAGUCAAG,0.0378
24,GGUCACGUCUCAAUCAACUCUUCAGAGGGGGGGAAAACCCCUUUGCCCUCCAUUUCAACAGCUCGCAGUCAAG,0.125

row,Sequence,binding signal (log2 fold change)
1,GGUCACGUCUCAAUCAACUCAUCGCCCAGGGAAAUCCCUGGUUAUCUCAACAGCUCGCAGUCAAG,0.0686
2,GGUCACGUCUCAAUCAACUCAUUUUCCAGGGAAAGCCCUGGCAUUCUCAACAGCUCGCAGUCAAG,0.168
3,GGUCACGUCUCAAUCAACUCAGUCCCCAGGGAAAUCCCUGGUUUAUUCAACAGCUCGCAGUCAAG,-0.0387
4,GGUCACGUCUCAAUCAACUCAUCGGAGGGGGGGAAAACCCCUUUACCCUCAUCAUCAACAGCUCGCAGUCAAG,0.0875
5,GGUCACGUCUCAAUCAACUCUUUUCCAGGAGUUUUCUCCUGCUAUCUCAACAGCUCGCAGUCAAG,0.00242
6,GGUCACGUCUCAAUCAACUCUAUUCCCAGGGAAACCCCUGGUUAUCUCAACAGCUCGCAGUCAAG,0.166
7,GGUCACGUCUCAAUCAACUCAAUUCCCAGGGAAAACCCUGGUAUAUUCAACAGCUCGCAGUCAAG,-0.113
8,GGUCACGUCUCAAUCAACUCAAUUUCAGGAGUUUCCUCCUGCUAUGUCAACAGCUCGCAGUCAAG,0.144
9,GGUCACGUCUCAAUCAACUCACAGGAGGGGGGGAAAACCCCUUUACCCUCAAUUUCAACAGCUCGCAGUCAAG,-0.207
10,GGUCACGUCUCAAUCAACUCAUCUUCAGGAGUUUGCUCCUGCUUUUUCAACAGCUCGCAGUCAAG,0.0533
11,GGUCACGUCUCAAUCAACUCAACUUCAGGAGUUUUCUCCUGCAUUUUCAACAGCUCGCAGUCAAG,-0.0175
12,GGUCACGUCUCAAUCAACUCAAUAGAGGGGGGGAAAACCCCUUUACCCUCCAUUUCAACAGCUCGCAGUCAAG,0.105
13,GGUCACGUCUCAAUCAACUCUUCUUCCAGGGAAACCCCUGGCAAUCUCAACAGCUCGCAGUCAAG,-0.0782
14,GGUCACGUCUCAAUCAACUCUACUCCCAGGGAAAUCCCUGGUUAAUUCAACAGCUCGCAGUCAAG,-0.245
15,GGUCACGUCUCAAUCAACUCCAAAGAGGGGGGGAAAACCCCUUUGCCCUCCAUUUCAACAGCUCGCAGUCAAG,-0.198
16,GGUCACGUCUCAAUCAACUCUAUAGAGGGGGGGAAAACCCCUUUACCCUCAUCAUCAACAGCUCGCAGUCAAG,0.306
17,GGUCACGUCUCAAUCAACUCAUUUCCAGGAGUUUGCUCCUGCUUACUCAACAGCUCGCAGUCAAG,0.129
18,GGUCACGUCUCAAUCAACUCAACUUCCAGGGAAACCCCUGGUAAUCUCAACAGCUCGCAGUCAAG,0.00358
19,GGUCACGUCUCAAUCAACUCACUAGAGGGGGGGAAAACCCCUUUACCCUCAUUAUCAACAGCUCGCAGUCAAG,0.408
20,GGUCACGUCUCAAUCAACUCUUCUUCCAGGGAAACCCCUGGUAUACUCAACAGCUCGCAGUCAAG,0.266
21,GGUCACGUCUCAAUCAACUCAUCUCCCAGGGAAAUCCCUGGUAAUCUCAACAGCUCGCAGUCAAG,0.0219
22,GGUCACGUCUCAAUCAACUCUUUCUCAGGAGUUUUCUCCUGUUUUUUCAACAGCUCGCAGUCAAG,-0.0612
23,GGUCACGUCUCAAUCAACUCAACGGAGGGGGGGAAAACCCCUUUACCCUCAAAAUCAACAGCUCGCAGUCAAG,-0.0322
